Measured values as given in PubChem BioAssay AID1347165 (National Center for Advancing Translational Sciences (NCATS), 2019).
Several values for one entry are separate records, joined by “and”; a condition that tells them apart may be missing. Equal entries are not always repeated. Hit rate of the full screen: of about 220,000 compounds, about 5,700 (2.6%) were called active. The inconclusive results got no clear call from the source; some entries with a clear call stand among them for comparison. Calls come from the whole dose curve; as a rule, active = well fitted inhibition curve with a large enough effect; inconclusive = small, poorly fitted or top-dose-only effect; inactive = no such curve, though single readings can be large or run the other way. A potency beside an inconclusive call is a rough fit, not a confirmed value.

target: Lysine-specific demethylase 5B (Homo sapiens) (UniProt Q9UGL1); assay: Primary screen for KDM5B Histone Demethylases FDH-coupled qHTS; details: FDH-coupled NADH fluorescence (FDH is formaldehyde dehydrogenase); activity change, negative = inhibition: at 57.7 µM (top of the series) unless noted; note: nearly all actives have a fitted effect of over 70% in size; for activity change, negative = inhibition: 0% is about no effect
Sequence of UniProt Q9UGL1 (Q9UGL1 whole entry, looked up): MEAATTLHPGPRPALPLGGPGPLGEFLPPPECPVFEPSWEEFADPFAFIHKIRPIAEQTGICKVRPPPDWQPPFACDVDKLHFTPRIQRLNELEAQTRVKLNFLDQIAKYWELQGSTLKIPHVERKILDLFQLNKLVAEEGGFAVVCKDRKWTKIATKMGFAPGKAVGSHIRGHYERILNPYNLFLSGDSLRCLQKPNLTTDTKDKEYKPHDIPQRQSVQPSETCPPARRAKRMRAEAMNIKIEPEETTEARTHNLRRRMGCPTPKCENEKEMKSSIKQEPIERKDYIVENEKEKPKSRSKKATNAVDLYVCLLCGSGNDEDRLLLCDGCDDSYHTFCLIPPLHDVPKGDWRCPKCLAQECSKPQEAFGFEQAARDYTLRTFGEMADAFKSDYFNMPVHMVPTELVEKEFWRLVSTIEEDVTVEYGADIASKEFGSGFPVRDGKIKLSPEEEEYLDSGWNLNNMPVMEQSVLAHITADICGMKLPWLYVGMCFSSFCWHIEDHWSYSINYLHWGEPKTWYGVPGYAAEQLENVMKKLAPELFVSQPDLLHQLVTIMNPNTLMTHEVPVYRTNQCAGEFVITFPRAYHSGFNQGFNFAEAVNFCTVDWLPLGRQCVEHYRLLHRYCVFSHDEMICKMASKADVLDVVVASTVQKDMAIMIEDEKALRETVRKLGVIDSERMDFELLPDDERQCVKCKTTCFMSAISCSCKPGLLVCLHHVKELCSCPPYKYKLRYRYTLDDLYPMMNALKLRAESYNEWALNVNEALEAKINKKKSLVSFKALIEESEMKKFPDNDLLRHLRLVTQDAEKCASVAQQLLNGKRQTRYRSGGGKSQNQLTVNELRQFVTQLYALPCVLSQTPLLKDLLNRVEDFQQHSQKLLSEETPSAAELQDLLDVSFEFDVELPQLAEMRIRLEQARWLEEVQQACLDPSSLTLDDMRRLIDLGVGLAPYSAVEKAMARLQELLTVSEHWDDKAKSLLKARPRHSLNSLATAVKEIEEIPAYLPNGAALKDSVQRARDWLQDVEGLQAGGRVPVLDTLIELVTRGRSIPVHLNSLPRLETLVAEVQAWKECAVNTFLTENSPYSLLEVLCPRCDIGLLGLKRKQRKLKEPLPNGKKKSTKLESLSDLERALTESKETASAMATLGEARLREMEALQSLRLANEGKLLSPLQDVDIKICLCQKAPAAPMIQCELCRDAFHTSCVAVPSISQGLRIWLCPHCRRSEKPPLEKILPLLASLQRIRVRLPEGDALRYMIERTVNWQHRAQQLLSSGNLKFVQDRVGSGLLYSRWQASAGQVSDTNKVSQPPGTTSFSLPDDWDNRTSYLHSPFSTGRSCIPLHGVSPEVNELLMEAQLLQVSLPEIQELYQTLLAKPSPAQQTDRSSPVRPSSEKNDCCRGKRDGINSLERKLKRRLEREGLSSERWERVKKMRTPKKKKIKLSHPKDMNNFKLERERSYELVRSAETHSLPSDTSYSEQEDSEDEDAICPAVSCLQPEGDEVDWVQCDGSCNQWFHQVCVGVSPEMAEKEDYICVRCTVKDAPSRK
Method in brief: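 qHTS format, multiple compound concentrations. Buffer 50 mM HEPES pH 7.5/0.01% Tween-20; 200 nM KDM5BΔAP final; 10 min compound preincubation; substrate-mix levels 12.5 µM peptide, 25 µM α-KG, 0.25 mM NAD⁺; 30 min RT; ΔRFU.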
Potency is the fitted concentration of half-maximal effect; tags give direction and shape of the fitted curve.

SMILES	Potency	activity change, negative = inhibition
Cc1c(O)ccc2c(CN3CCN(CCc4ccncc4)CC3)cc(=O)oc12	inconclusive: 22.4 µM [inhibitor, partial curve, poor fit]	–
Cc1cc(Cl)ccc1OCC(=O)Nc1ccc(N2CCN(C(=O)c3cccs3)CC2)cc1	inactive	–
CCN1CCc2nc3sc(C(=O)c4ccccc4)c(N)c3cc2C1	inconclusive: 15.8 µM [inhibitor, partial curve, poor fit] and inconclusive: 12.6 µM [inhibitor, partial curve, poor fit]	–
O=S(=O)(NC[C@H]1O[C@@H](CO)[C@@H](O)[C@H]1N1CCN(c2ccccc2)CC1)c1ccc(F)cc1	inconclusive: 31.6 µM [inhibitor, partial curve, poor fit]	–
CCC(C)NC(=O)c1cc2cc(OC)ccc2oc1=O (stereo unspecified)	inconclusive: 15.8 µM [inhibitor, partial curve, poor fit]	–
Cc1ccc(S(=O)(=O)N2CCCN(C(C(=O)NC3CC3)c3ccccc3)CC2)cc1 (stereo unspecified)	inactive	–
Cc1ccc(S(=O)(=O)N(C)c2ccc(C(=O)Nc3cccc(C)n3)cc2)cc1	inconclusive: 31.6 µM [inhibitor, partial curve, poor fit]	–
O=C(/C=C/c1ccc(Cl)c(Cl)c1)c1ccc(OC(F)F)cc1OC(F)F	inactive	–
O=C(c1ccc(Cn2cc(Cl)cn2)cc1)N1CCN(Cc2cccc(C(F)(F)F)c2)CC1	inactive	–
Cc1ccc(NS(=O)(=O)c2cc([N+](=O)[O-])ccc2NN)c(C)c1	inactive	–
CC(C(=O)NCc1ccccc1)n1nc(-c2ccccc2)c2ccccc21 (stereo unspecified)	inconclusive: 39.8 µM [inhibitor, single point]	–
Cc1cccc(NC(=O)c2cc(-c3ccc4c(c3)OCCO4)on2)c1	inconclusive: 35.5 µM [inhibitor, single point]	–
N#Cc1nc(COc2ccc3c(c2)OCO3)oc1NC1CCCCC1	inconclusive: 25.1 µM [inhibitor, single point]	–
COCCNc1nc2c([S+](=O)([O-])c3ccc(Cl)cc3)nnn2c2ccccc12	inconclusive: 3.98 µM [inhibitor, full curve, poor fit]	–
CCOc1ccc(Cn2c(-c3ccc(OCC)c(OC)c3)nc3ccccc32)cc1OC	inconclusive: 2.82 µM [inhibitor, partial curve, poor fit]	–
COCCn1c(=O)c2c(n1Cc1ccccc1)CN(Cc1ccc3[nH]ccc3c1)CC2	inconclusive: 35.5 µM [inhibitor, single point]	–
Cc1cccc(-n2nc(C)c(CCC(=O)N(C)C(C)C)c2Oc2ccccc2C)c1	inactive	–
Cc1ccnn1CCC(=O)Nc1nn(C)c2cccc(N3CCOCC3)c12	active: 28.2 µM	–
COCCNC(=O)c1ccc2c(c1)N(Cc1cc(C)ccc1C)C(=O)c1ccccc1S2(=O)=O	inconclusive: 15.8 µM [inhibitor, partial curve, poor fit]	–
CCSc1ncc(Cl)c(C(=O)N(Cc2ccc(N(C)C)cc2)Cc2ccco2)n1	inconclusive: 8.91 µM [inhibitor, partial curve, poor fit]	–
Cc1cc(C[C@@H]2COC[C@@H]2NC(=O)c2cnn3cc(CCO)cnc23)on1	active: 28.2 µM	–
COc1ccc(C(=O)NC2CCN(c3cc(-c4cccs4)[nH]n3)CC2)cc1	inconclusive: 14.1 µM [inhibitor, partial curve]	–

SMILES	Potency	activity change, negative = inhibition
COC(=O)[C@@H]1Cc2nc[nH]c2CN1Cc1ccc(C(=O)O)cc1	active: 39.8 µM	–
CN(C)c1ccc(CN[C@H]2C[C@H]3C(=O)NC[C@@H](CCC(=O)N4CCCC4)N3C2)cc1	inconclusive: 35.5 µM [inhibitor, partial curve, poor fit]	–
CN1CCN(c2ccc(-c3noc([C@@H]4CCCN4CCCc4ccccc4)n3)cn2)CC1	active: 31.6 µM	–
CCCN(CCC)CCNC(=O)Cn1cc2c(n1)-c1c(oc(C(=O)N3CCCC3)c1C)CC2	inconclusive: 15.8 µM [inhibitor, partial curve, poor fit]	–
COCc1nnc2n1CCC(NC(=O)c1ccco1)CC2 (stereo unspecified)	inactive	–
O=S(=O)(Nc1ccc2cn[nH]c2c1)c1cc(C(F)(F)F)ccc1Cl	inconclusive: 10 µM [inhibitor, partial curve, poor fit]	–
S=C(N/N=C1/CC2CC=CC12)NC1CCCCC1 (stereo unspecified)	inactive	–
COc1cc(NS(=O)(=O)c2cccc(Cl)c2C)cc2sc(NC(C)=O)nc12	inactive	–
CN1CC2(CCCN(CC3CC3)C2)c2cc(C(=O)Nc3ccn(C)n3)ccc21 (stereo unspecified)	inconclusive: 31.6 µM [inhibitor, single point]	–
O=S(CCCOc1ccc(F)cc1)Cc1ccc(F)cc1 (stereo unspecified)	inactive	–
Cc1cc(C)n2nc(C(=O)N3CCC4(CC3)C(=O)Nc3ccccc34)cc2n1	active: 28.2 µM	–
CCOC(=O)c1ccc(NC(=O)CSc2nc3ccccc3c(=O)n2CCNC(C)=O)cc1	inconclusive: 20 µM [inhibitor, single point]	–
Cc1ccc(CCNC(=O)Cn2ncc3c([nH]c4ccc(C)cc43)c2=O)cc1	–	inconclusive: -38.1% [inhibitor]
COc1ccccc1N1CCN(c2ccnc3cc(Cl)ccc23)CC1	inconclusive: 31.6 µM [inhibitor, single point]	–
O=C(Nc1ccc(N2CCN(c3ccc(F)cc3)CC2)c(C(=O)O)c1)c1ccccc1F	inconclusive: 35.5 µM [inhibitor, single point]	–
CCOCCCNC(=O)CC1CC2CCC1C2 (stereo unspecified)	inactive	–
COc1ccc(CC(=O)NC2CCCc3c2[nH]c2ccccc32)cc1OC (stereo unspecified)	inconclusive: 15.8 µM [inhibitor, single point]	–
CSc1ccc(/C=N/Nc2ccc(F)cc2F)cc1	inconclusive: 35.5 µM [inhibitor, partial curve, poor fit]	–
Cc1cccc(NS(=O)(=O)c2ccc3c(c2)[C@H]2C=CC[C@H]2[C@@H](c2ccc(F)cc2)N3)c1	inconclusive: 15.8 µM [inhibitor, partial curve, poor fit]	–
CCCOc1ccc(-c2nn(-c3ccccc3)cc2C2NC(=O)NC(C)=C2C(=O)OC)cc1 (stereo unspecified)	inconclusive: 22.4 µM [inhibitor, single point]	–
CCN(CC)Cc1cnc2c(C(=O)NCCc3ncc[nH]3)cnn2c1	inconclusive: 25.1 µM [inhibitor, single point]	–
N#Cc1nc(-c2ccc(S(=O)(=O)N3CCCC3)cc2)oc1N1CCC(Cc2ccccc2)CC1	inconclusive: 10 µM [inhibitor, partial curve, poor fit]	–

SMILES	Potency	activity change, negative = inhibition
Cc1cc(-c2csc(N3CCN(C)CC3)n2)c(C)n1NC(=O)c1nn(C)c(=O)c2ccccc12	inconclusive: 22.4 µM [inhibitor, partial curve, poor fit]	–
COc1ccc(OC)c(NC(=O)COC(=O)c2sccc2C)c1	inactive	–
CCOc1ccc(CNC(=O)CCCn2nc(C)c3sc4ccccc4c3c2=O)cc1	–	inconclusive: -36% [inhibitor]
O=C(Nc1ccc(C(F)(F)F)cc1)C1=NO[C@@H]2CN(CCc3ccccc3)C[C@H]12	inconclusive: 39.8 µM [inhibitor, partial curve, poor fit]	–
CC(=O)c1sc(C(=O)O)c(-c2ccco2)c1-c1ccco1	inconclusive: 28.2 µM [inhibitor, single point]	–
Fc1ccc(CNCc2cccc(Oc3ccccc3)c2)cc1	inactive	–
Cc1n[nH]c(C)c1S(=O)(=O)N(CC(=O)NCc1ccc(F)cc1)c1ccc(C(C)C)cc1	inactive	–
COc1cccc(C(=O)Nc2cccc(NC(=O)c3ccc(Cl)cc3Cl)c2)c1	inconclusive: 39.8 µM [inhibitor, single point]	–
Cc1noc2c(-c3cccnc3)cc(-c3cccc(C(F)(F)F)c3)nc12	inconclusive: 28.2 µM [inhibitor, single point]	–
Cc1ccccc1NC(=O)C(C)Sc1ccc(C(F)(F)F)cn1 (stereo unspecified)	inactive	–
Cc1nn(C)c2c1c(-c1ccccc1)cc(=O)n2Cc1ccccc1Cl	inconclusive: 28.2 µM [inhibitor, partial curve, poor fit]	–
COc1ccccc1-c1cc(=O)c2cc(NC(=O)c3ccccc3F)ccc2o1	inactive	–
O=C(NC1CC1)c1ccc2nnc(-c3ccc(Cl)cc3)n2c1	active: 50.1 µM	–
CNS(=O)(=O)CCNc1nc(-c2ccccn2)nc2c1c(C)nn2C	active: 22.4 µM	–
Cc1ccc(CN(C(=O)COc2ccc(Cl)cc2)c2ccccn2)o1	inconclusive: 15.8 µM [inhibitor, partial curve, poor fit]	–
O=[N+]([O-])c1cc(Br)cc(C=Nc2ccc3c(c2)OCO3)c1O	inconclusive: 39.8 µM [inhibitor, single point]	–
COCC(=O)N1CCN(C(=O)C(=O)c2cccn2C)[C@H]2CS(=O)(=O)C[C@H]21	inactive	–
CCOC(=O)c1ccc(NC(=O)CC2Sc3ccc(C(F)(F)F)cc3NC2=O)cc1 (stereo unspecified)	inconclusive: 28.2 µM [inhibitor, partial curve, poor fit]	–
CCn1cc2c3c(cccc31)CN(C(=O)CC(C)(C)C)CC2	inconclusive: 28.2 µM [inhibitor, single point]	–
Oc1ccc(C2=CSC3=NCCN23)cc1O	inconclusive: 25.1 µM [inhibitor, partial curve, poor fit]	–
COc1ccc(-c2nc(CCNC(=O)c3cccs3)cs2)cc1	inconclusive: 35.5 µM [inhibitor, single point]	–
O=C(Cc1c[nH]c2ncc(-c3ccccc3)cc12)N1CC[S+](=O)([O-])CC1	active: 35.5 µM	–
